Results as given in the BET-seq Pho4 binding data (Le et al. 2018).
This is one part of the list. Values were computed here from the reads of four pooled replicates and scatter widely.

Each sequence was assayed against T1, Pho4 (S. cerevisiae) (UniProt P07270) (assay: relative binding free energy (BET-seq); higher = weaker binding). Details: reference: library average.
T1 sequence: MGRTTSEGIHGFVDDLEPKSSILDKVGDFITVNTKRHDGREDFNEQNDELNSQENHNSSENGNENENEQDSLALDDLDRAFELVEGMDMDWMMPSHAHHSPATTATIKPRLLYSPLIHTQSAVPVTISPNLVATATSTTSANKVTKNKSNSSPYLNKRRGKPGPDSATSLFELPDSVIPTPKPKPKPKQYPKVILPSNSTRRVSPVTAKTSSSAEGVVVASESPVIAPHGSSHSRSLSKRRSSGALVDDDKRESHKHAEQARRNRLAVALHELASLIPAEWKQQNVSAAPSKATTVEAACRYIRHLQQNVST

Sequence | relative binding free energy
TTTTTCACGTGCCTTA | 0.28 kcal/mol
AGAATCACGTGAGAGT | 0.32 kcal/mol
CTAGGCACGTGGGTAA | -0.17 kcal/mol
GCGGGCACGTGTGTAG | 0.03 kcal/mol
CGGGTCACGTGCGAGT | 0.06 kcal/mol
TATAACACGTGGATGA | -0.03 kcal/mol
TGTAACACGTGGTGGA | -0.16 kcal/mol
GGGAGCACGTGGGTCC | -0.21 kcal/mol
AGTGCCACGTGATGGC | 0.2 kcal/mol
TATGTCACGTGATCTG | 0.18 kcal/mol
CTGATCACGTGGTTTA | 0.11 kcal/mol
TGATGCACGTGTTGTG | -0.06 kcal/mol
TATGGCACGTGGTCAT | -0.25 kcal/mol
AAAGACACGTGGTTTA | 0.09 kcal/mol
TGTGGCACGTGGCAGA | -0.25 kcal/mol
ATAGACACGTGCTGGT | -0.03 kcal/mol
ATACACACGTGGTTGT | -0.11 kcal/mol
TTTTTCACGTGTGTAT | 0.27 kcal/mol
AGTTTCACGTGGCAAT | 0.2 kcal/mol
TGGGCCACGTGAATAT | 0.27 kcal/mol
AATCGCACGTGTATGG | -0.06 kcal/mol
GATGTCACGTGGCATT | 0.23 kcal/mol
TTTGTCACGTGACTAG | 0.27 kcal/mol
TACTGCACGTGGTTTA | 0.08 kcal/mol
GTTGACACGTGTGAGG | 0.13 kcal/mol
AACTTCACGTGGGGGG | 0.2 kcal/mol

Sequence | relative binding free energy
GGAGGCACGTGATAGG | -0.01 kcal/mol
AGATCCACGTGGGAGG | -0.04 kcal/mol
GGCGACACGTGGGGAT | 0.05 kcal/mol
GTGAGCACGTGGGTAG | -0.22 kcal/mol
TAATGCACGTGTTTTG | -0.03 kcal/mol
CTTGTCACGTGGAGTG | 0.03 kcal/mol
AGTTGCACGTGTATGG | 0.08 kcal/mol
TTGGGCACGTGACAGG | -0.03 kcal/mol
ATTGGCACGTGTGTAG | -0.13 kcal/mol
ATGATCACGTGTTCGT | 0.16 kcal/mol
AATCGCACGTGTGGGA | 0.12 kcal/mol
TTTAACACGTGTCATT | 0.12 kcal/mol
GAATGCACGTGGGGAT | -0.2 kcal/mol
TCAGTCACGTGGAATG | 0.1 kcal/mol
TTGGACACGTGTGTTC | 0.26 kcal/mol
ATTCTCACGTGTAAGG | 0.16 kcal/mol
ACTTACACGTGGGTGG | -0.04 kcal/mol
GGTGACACGTGGGTGG | -0.12 kcal/mol
CTAGTCACGTGTTGAT | -0.01 kcal/mol
ATAGACACGTGGATTA | 0.12 kcal/mol
GATTGCACGTGCAGTG | 0.07 kcal/mol
AGAGACACGTGGAGGC | 0.08 kcal/mol
TTAGTCACGTGGACGA | 0.08 kcal/mol
CGTGACACGTGATGGT | 0.17 kcal/mol
TATGACACGTGCTTGG | -0.11 kcal/mol
TATTTCACGTGGTGAA | 0.18 kcal/mol

Sequence | relative binding free energy
ATTATCACGTGAGGGC | 0.33 kcal/mol
GTGATCACGTGAGTGA | 0.28 kcal/mol
TGAGTCACGTGTATGC | 0.04 kcal/mol
GTGGCCACGTGGTCTG | -0.16 kcal/mol
ATGGACACGTGATGCG | 0 kcal/mol
GTTGGCACGTGTAAGC | 0.2 kcal/mol
CTGGACACGTGTTTGA | 0 kcal/mol
GGGTACACGTGGAAAT | 0.24 kcal/mol
TATGTCACGTGTTTAG | 0.13 kcal/mol
GTTCTCACGTGGTTTC | 0.51 kcal/mol
AGAGTCACGTGTGTGT | 0.06 kcal/mol
TGACTCACGTGGTTGT | 0.06 kcal/mol
ATTAGCACGTGGTTTT | -0.07 kcal/mol
GGGATCACGTGTTATG | 0.23 kcal/mol
GCGCACACGTGGGTTG | 0.03 kcal/mol
TCGGACACGTGAGTTA | 0.27 kcal/mol
CTATTCACGTGGAAGG | 0.26 kcal/mol
TGAAGCACGTGGGGTA | -0.18 kcal/mol
TGTTCCACGTGAGTCA | 0.39 kcal/mol
AGGTTCACGTGATTAA | 0.32 kcal/mol
CTCGACACGTGTGGTG | -0.02 kcal/mol
CAATGCACGTGTTTTT | -0.01 kcal/mol
GGAAACACGTGGTCTG | 0.22 kcal/mol
AGTATCACGTGTTCAT | -0.01 kcal/mol
GTGTTCACGTGTCTAG | 0.2 kcal/mol
CTTGACACGTGGGCGT | -0.22 kcal/mol

Sequence | relative binding free energy
TAAGACACGTGGGGCT | -0.23 kcal/mol
AGTGTCACGTGCTGGT | -0.03 kcal/mol
GTGATCACGTGTTGCA | 0.05 kcal/mol
GTGATCACGTGATTAG | 0.38 kcal/mol
GGGCCCACGTGGGTTT | -0.18 kcal/mol
TACTACACGTGGGTGG | -0.07 kcal/mol
TGCGGCACGTGGTTGC | -0.09 kcal/mol
AGAGTCACGTGATTCG | 0.28 kcal/mol
GGTATCACGTGTTAGT | 0.11 kcal/mol
TTCGTCACGTGAGATG | 0.34 kcal/mol
CAGGTCACGTGGGGCA | -0.09 kcal/mol
AAGGTCACGTGCGGGC | 0.01 kcal/mol
ATGAGCACGTGTTTTT | -0.06 kcal/mol
CGGGGCACGTGAGTAT | 0.05 kcal/mol
TTGAACACGTGGTTTT | 0.02 kcal/mol
TGTTTCACGTGTGTGG | 0.32 kcal/mol
TGAGACACGTGTGCTT | 0.15 kcal/mol
ATTACCACGTGTGGGG | 0 kcal/mol
TTGTACACGTGTTTGG | 0.04 kcal/mol
AATGTCACGTGTATCT | 0.18 kcal/mol
CTAGGCACGTGGTCGT | -0.28 kcal/mol
TAGTTCACGTGCGGGT | 0.22 kcal/mol
TGGATCACGTGTTCAT | 0.12 kcal/mol
TGGGTCACGTGACTGG | 0.23 kcal/mol
ATAAGCACGTGTTTTC | -0.05 kcal/mol
AGGGACACGTGTAATT | 0.18 kcal/mol

Sequence | relative binding free energy
TTTGGCACGTGGAGCT | -0.1 kcal/mol
TAAGTCACGTGGAAAG | 0.25 kcal/mol
AGTAGCACGTGCGTTA | -0.04 kcal/mol
AGTATCACGTGCTTTG | -0.04 kcal/mol
CGAGACACGTGGGGTT | -0.11 kcal/mol
GGGATCACGTGATATA | 0.37 kcal/mol
CGTTACACGTGAGCGG | 0.27 kcal/mol
AACGTCACGTGTTGGA | 0.22 kcal/mol
GATTGCACGTGATGTA | 0.24 kcal/mol
TTGTTCACGTGTTGCC | 0.35 kcal/mol
GCGTGCACGTGGTTTG | -0.07 kcal/mol
GAGGGCACGTGTGGCT | -0.01 kcal/mol
GTAGACACGTGTTGTT | 0.03 kcal/mol
GCTCTCACGTGGTTTG | 0.31 kcal/mol
GGTTTCACGTGACATT | 0.39 kcal/mol
TAGTGCACGTGCGGTG | -0.03 kcal/mol
AATATCACGTGGTTAT | 0.02 kcal/mol
TGTTGCACGTGAGGAT | 0.22 kcal/mol
TTGATCACGTGGTGCT | 0.08 kcal/mol
TGTATCACGTGAGGGC | 0.29 kcal/mol
CGGTTCACGTGGTTTA | 0.22 kcal/mol
ATGTACACGTGTGAAT | 0.04 kcal/mol
GAATGCACGTGGTTGT | 0.04 kcal/mol
TGTGGCACGTGGATCA | -0.14 kcal/mol
TAAGCCACGTGGGTGG | -0.33 kcal/mol
TGCGGCACGTGAAGAG | 0.17 kcal/mol

Sequence | relative binding free energy
GTCTACACGTGGGCTG | 0.04 kcal/mol
CGCGGCACGTGGGCAG | -0.33 kcal/mol
GTTTCCACGTGGCTGT | 0.03 kcal/mol
GTGAGCACGTGTAGGG | -0.11 kcal/mol
CTGGTCACGTGGCGGG | 0.01 kcal/mol
AGAGGCACGTGGTTGG | -0.16 kcal/mol
GCGTTCACGTGACGGT | 0.46 kcal/mol
ATTGGCACGTGAGCTT | -0.04 kcal/mol
TATTTCACGTGAGAAT | 0.3 kcal/mol
TAATGCACGTGTGCTT | -0.02 kcal/mol
TCGGGCACGTGGTCTA | -0.17 kcal/mol
CTAGTCACGTGTAGGT | 0.11 kcal/mol
GGGAACACGTGGATAT | 0.17 kcal/mol
TAGGGCACGTGGGGCA | -0.17 kcal/mol
TTACTCACGTGGCTGT | 0.05 kcal/mol
AATATCACGTGTAGGA | 0.01 kcal/mol
TCTCGCACGTGAGTGA | 0.28 kcal/mol
TTTAACACGTGTCGAT | 0.04 kcal/mol
GCGTGCACGTGTGTGA | -0.06 kcal/mol
GATAGCACGTGGGTTA | -0.23 kcal/mol
GGAGGCACGTGCCGGT | -0.22 kcal/mol
GATAACACGTGGTTGA | 0.02 kcal/mol
TATCGCACGTGTTGAT | -0.15 kcal/mol
CTTATCACGTGGTTGT | 0.12 kcal/mol
GGAGACACGTGTAGGG | 0 kcal/mol
ATAGCCACGTGTTATG | -0.05 kcal/mol

Sequence | relative binding free energy
AATGCCACGTGTATGG | -0.02 kcal/mol
AGAGTCACGTGAATGT | 0.36 kcal/mol
AAATGCACGTGAATTG | 0.18 kcal/mol
TCGTACACGTGGGCGT | -0.1 kcal/mol
TAAGTCACGTGTGTAT | 0.26 kcal/mol
TGTTGCACGTGGAGGC | -0.01 kcal/mol
GGTTGCACGTGTGAAT | 0.21 kcal/mol
TTTTACACGTGATTCT | 0.1 kcal/mol
CTGGTCACGTGTAATT | 0.17 kcal/mol
TTTGGCACGTGCTTCA | -0.1 kcal/mol
GGCGGCACGTGTTCGA | 0.05 kcal/mol
CCTGGCACGTGTTAGG | -0.01 kcal/mol
GTCTGCACGTGAAATG | 0.48 kcal/mol
TAACGCACGTGGGGTA | -0.33 kcal/mol
TGGGTCACGTGAGGGA | 0.34 kcal/mol
GGAGGCACGTGTATAT | -0.06 kcal/mol
AGGGCCACGTGGGCGC | -0.25 kcal/mol
GTGACCACGTGGGTGT | -0.15 kcal/mol
GTGGGCACGTGGAGCC | -0.03 kcal/mol
GGGGACACGTGTCTGA | 0.03 kcal/mol
GCTGGCACGTGGTGGG | -0.02 kcal/mol
CAGGGCACGTGGATTT | -0.05 kcal/mol
GTTGACACGTGGAAAT | 0.28 kcal/mol
TGCATCACGTGGACGG | 0.29 kcal/mol
GGGTTCACGTGCGCGC | 0.38 kcal/mol
GGAGTCACGTGTAATG | 0.2 kcal/mol

Sequence | relative binding free energy
GTGCGCACGTGGGGAC | -0.3 kcal/mol
ATGTTCACGTGATCTG | 0.36 kcal/mol
CAATACACGTGTATGG | 0.22 kcal/mol
TTTAGCACGTGGTTGT | -0.05 kcal/mol
TGTAGCACGTGTTGTG | -0.1 kcal/mol
GGGGACACGTGATGAG | 0.11 kcal/mol
TTTGACACGTGGCTGT | -0.15 kcal/mol
GGTCACACGTGATGTA | 0.29 kcal/mol
AGTGGCACGTGAATGC | 0.16 kcal/mol
AGGGCCACGTGTGTAT | -0.05 kcal/mol
GTCGGCACGTGTCATT | 0.13 kcal/mol
CTGTGCACGTGCGGAG | -0.19 kcal/mol
CTTCTCACGTGAGGGG | 0.34 kcal/mol
ACAGGCACGTGTTGAG | -0.03 kcal/mol
CAGGTCACGTGGATTT | 0.28 kcal/mol
AGCTTCACGTGAGGGT | 0.29 kcal/mol
CGTTGCACGTGGTGGC | -0.17 kcal/mol
AGAAGCACGTGGTGTT | -0.27 kcal/mol
GATTGCACGTGAGGCT | 0.13 kcal/mol
AAAGGCACGTGTGGTC | -0.15 kcal/mol
GAGGGCACGTGTGAGC | 0.03 kcal/mol
ATTGGCACGTGGCACG | -0.21 kcal/mol
CGTTGCACGTGAAGTT | 0.21 kcal/mol
AAGTTCACGTGAAGAG | 0.44 kcal/mol
ACATTCACGTGGGGGT | 0.14 kcal/mol
TAGATCACGTGGGGGG | 0.12 kcal/mol

Sequence | relative binding free energy
CTTTACACGTGTTTGA | 0.06 kcal/mol
ATTGGCACGTGCGTGA | -0.27 kcal/mol
TGATGCACGTGTTACG | 0.01 kcal/mol
AGAGACACGTGGGAGT | 0.01 kcal/mol
GATGGCACGTGAGTGA | 0.28 kcal/mol
TTTAACACGTGGTCAG | -0.12 kcal/mol
GTTTACACGTGTGTAA | 0.05 kcal/mol
CTGTTCACGTGGGGAC | 0.08 kcal/mol
ATATTCACGTGTGTAT | 0.33 kcal/mol
CTGTACACGTGTCATG | 0.24 kcal/mol
AAGTGCACGTGTTTAA | -0.04 kcal/mol
TTTATCACGTGGGTTC | -0.01 kcal/mol
TTTACCACGTGATGAT | 0.07 kcal/mol
TGCAGCACGTGACGGT | 0.09 kcal/mol
CCTGGCACGTGGTGGT | -0.25 kcal/mol
GTTAACACGTGGAGTT | 0.02 kcal/mol
ATCTGCACGTGGGTGG | -0.1 kcal/mol
ATTGTCACGTGTGTCG | 0.14 kcal/mol
ATGTTCACGTGAATGA | 0.47 kcal/mol
CTTAACACGTGAGGGG | 0.17 kcal/mol
AGCATCACGTGGAAGG | 0.21 kcal/mol
TTAAACACGTGGTCTT | -0.08 kcal/mol
